Data reported in PubChem BioAssay AID624173 (National Center for Advancing Translational Sciences (NCATS), 2012).
Screen size: about 410,000 compounds; about 490 (0.12%) were called active. The shares of active, inactive and inconclusive entries below differ from those in the screen. Calls follow the shape of the dose curve; as a rule, active = well fitted inhibition curve with a large enough effect; inconclusive = small, poorly fitted or top-dose-only effect; inactive = flat fitted curve, though single readings scatter. A potency beside an inconclusive call is a rough fit, not a confirmed value.

These molecules were tested against pyruvate kinase (Trypanosoma brucei) (UniProt Q57TT1) (assay: qHTS of Trypanosoma Brucei Inhibitors). Conditions: TbPYK enzyme, Kinase-Glo Plus ATP luminescence, 45 min; series mostly up to 76.8 µM; activity, negative = inhibition: at the top concentration.
Method in brief: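 ADP (130 uM final) triggers the TbPYK reaction after compound addition; incubation is 45 min at room temperature. Kinase-Glo Plus is then added and luminescence imaged. Normalized data are fitted to concentration-effect curves.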
% is scaled to controls: 0 for no effect and ±100 for the full control effect; potency is read from the fitted curve at half-maximal effect; tags tell the direction and shape of the fitted curve.
Also: nearly all actives have a fitted effect of over 50% in size.

| SMILES | activity, negative = inhibition | Potency |
| --- | --- | --- |
| Cc1ccc(-c2noc(-c3cccnc3NCc3ccco3)n2)cc1 | inactive: -4.26% |  |
| CC(OC(=O)CSc1ccc([N+](=O)[O-])cc1)C(=O)NCc1ccccc1 (configuration not stated) |  | inconclusive: 25.1 µM [inhibitor, partial curve, poor fit] |
| CCN(CC)S(=O)(=O)c1ccc(OCCNS(C)(=O)=O)cc1 |  | inconclusive: 50.1 µM [inhibitor, single point] |
| COc1cccc(/C=C2\C(=O)C(=O)c3ccccc32)c1 |  | inconclusive: 39.8 µM [inhibitor, partial curve, poor fit] |
| COc1cccc(C(=O)O/N=C(\N)c2ccccn2)c1OC |  | inconclusive: 25.1 µM [inhibitor, single point] |
| CCCNC(=O)N(C)C[C@@H]1Oc2ncc(-c3ccncc3)cc2C(=O)N([C@H](C)CO)C[C@@H]1C |  | inconclusive: 31.6 µM [inhibitor, partial curve, poor fit] |
| N#Cc1cc2c(nc1SCc1cccnc1)CCCC2 |  | inconclusive: 31.6 µM [inhibitor, partial curve, poor fit] |
| O=C(O)c1cc(C(=O)O)cc(-c2ccc(/C=c3/sc4nc5ccccc5n4c3=O)o2)c1 |  | inconclusive: 28.2 µM [inhibitor, single point] |
| Oc1ccc(/C=N/n2c(COc3ccccc3)n[nH]c2=S)cc1O |  | inconclusive: 0.794 µM [inhibitor, full curve] |
| COc1ccc(S(=O)(=O)N2CCN(CC(=O)c3ccc(O)c(O)c3)CC2)cc1 |  | inconclusive: 35.5 µM [inhibitor, partial curve] |
| Oc1cc2ccccc2cc1-c1n[nH]c(=S)n1Cc1ccco1 |  | inconclusive: 4.47 µM [inhibitor, full curve, poor fit] |
| COc1ccc2ccccc2c1/C=N/NC(=O)c1cccc(Br)c1 | inactive: -3.23% |  |
| O=C(Nc1cccc(C(=O)NC2CC2)c1)c1ccccc1 | inactive: -3.06% |  |
| CC1CCC2(CC1)NC(=S)N(C(C)(C)C)N2 (configuration not stated) |  | inconclusive: 14.1 µM [inhibitor, partial curve, poor fit] |
| CCOC(=O)c1c(-c2ccccc2)oc2ccc(O)c(CN3CCOCC3)c12 |  | inconclusive: 39.8 µM [inhibitor, single point] |
| CC(C)(C)c1ccc(-c2n[nH]c(=S)n2C2CCCC2)cc1 |  | inconclusive: 11.2 µM [inhibitor, partial curve] |
| COc1ccc(NC(=S)NNc2ccc([N+](=O)[O-])cc2S(=O)(=O)Nc2ccc(C)cc2C)cc1 |  | inconclusive: 28.2 µM [inhibitor, partial curve, poor fit] |
| CCn1c(-c2cc(-c3cccc(OC)c3)nc3ccccc23)n[nH]c1=S |  | inconclusive: 20 µM [inhibitor, partial curve, poor fit] |
| CCn1c(SC(=O)NC2CCCCC2)nnc1-c1cccs1 |  | inconclusive: 35.5 µM [inhibitor, single point] |
| O=C(CCc1nnc(-c2ccc3c(c2)OCO3)o1)NCCc1ccccc1F |  | inconclusive: 35.5 µM [inhibitor, single point] |
| COCCCn1c(=O)c2ccccc2n2c(=S)[nH]nc12 |  | inconclusive: 15.8 µM [inhibitor, partial curve, poor fit] |
| O=C(NCC1CCCO1)c1ccccc1NS(=O)(=O)c1ccc(Br)s1 (configuration not stated) |  | inconclusive: 35.5 µM [inhibitor, partial curve, poor fit] |
| CC(=O)CSc1nnc(CN2C(=O)CSc3ccc(C(F)(F)F)cc32)n1C |  | inconclusive: 39.8 µM [inhibitor, single point] |

| SMILES | activity, negative = inhibition | Potency |
| --- | --- | --- |
| CCCOc1ccc(CC(=O)NCc2ccco2)cc1OC |  | inconclusive: 35.5 µM [inhibitor, partial curve, poor fit] |
| O=C1N=C(c2ccccc2)S/C1=C\c1cccs1 |  | active: 7.94 µM |
| CCOC(=O)C1CCN(c2nc(N)c3c(N)nc(SCC(=O)O)cc3c2C#N)CC1 | inactive: -21.4% |  |
| CC(=O)C1=C(C)Nc2cc(C(F)(F)F)ccc2S1 |  | inconclusive: 39.8 µM [inhibitor, single point] |
| Cc1ccc(S(=O)(=O)N2CCOCC2)cc1-c1n[nH]c(=S)n1-c1ccccc1 |  | inconclusive: 31.6 µM [inhibitor, partial curve] |
| O=S(=O)(NCCN1CCOCC1)c1ccc(F)c(Cl)c1 |  | inconclusive: 31.6 µM [inhibitor, partial curve, poor fit] |
| CNS(=O)(=O)c1cccc(C(=O)OCC(=O)Nc2ccc(-c3nc4ccc(C)cc4s3)cc2)c1 | inactive: -2.53% |  |
| S=c1[nH]ccn1-c1ccccc1Cl |  | inconclusive: 17.8 µM [inhibitor, partial curve, poor fit] |
| Cc1ccc(NC(=O)C2CCN(S(=O)(=O)c3ccc4c(c3)OCCCO4)CC2)nc1 | inactive: -3.95% |  |
| Cn1c(O)c(N=NC(N)=S)c2ccccc21 | inactive: -24.2% |  |
| COc1cccc(-n2cc(C(=O)NCc3ccccc3OC)c3ccccc3c2=O)c1 | inactive: 2.08% |  |
| O=C1NC(=O)N(c2cccc(Cl)c2)C(=O)/C1=C\c1ccc(Sc2nc3ccccc3[nH]2)o1 |  | inconclusive: 39.8 µM [inhibitor, partial curve, poor fit] |
| CCC1CN(C(=O)N2CCC(C(=O)NCCN(CC)CC)CC2)c2ccccc2O1 (configuration not stated) | inactive: -1.16% |  |
| N/C(=N\OC(=O)CSc1ccccc1)c1cccc([N+](=O)[O-])c1 | inactive: -4.21% |  |
| CCOC(=O)CCP(=O)(O)C(O)c1ccccc1 (configuration not stated) | inactive: 2.54% |  |
| O=C(O)c1ccc(-n2c(-c3cc(-c4ccco4)[nH]n3)n[nH]c2=S)cc1 |  | inconclusive: 15.8 µM [inhibitor, partial curve] |
| COc1ccc(-c2ccc3c(N)c(C(=O)c4cccc(OC)c4)sc3n2)cc1 |  | inconclusive: 50.1 µM [inhibitor, single point] |
| Cc1c(NC(=O)CSc2ccc3c(c2)OCCO3)c(=O)n(-c2ccccc2)n1C |  | inconclusive: 11.2 µM [inhibitor, partial curve] |
| CCOc1ccc(S(=O)(=O)NNS(=O)(=O)c2ccc(C)cc2C)cc1 |  | inconclusive: 28.2 µM [inhibitor, partial curve, poor fit] |
| O=C(Nc1ccc(Br)cc1Cl)c1cnccn1 | inactive: -8.1% |  |
| c1csc(-c2nc(CN3CCSCC3)cs2)c1 |  | inconclusive: 22.4 µM [inhibitor, partial curve, poor fit] |
| CC(=O)OCC1=C(C(=O)OC(C)(C)C)N2C(=O)[C@@H](NC(=O)Cc3ccccc3)[C@H]2SC1 |  | inconclusive: 35.5 µM [inhibitor, single point] |
| CCN1C(=O)C(=Cc2ccc(C)s2)C(=O)N(CC)C1=S |  | inconclusive: 50.1 µM [inhibitor, single point] |

| SMILES | activity, negative = inhibition | Potency |
| --- | --- | --- |
| O=C(c1ccccc1)c1cc(Cl)ccc1N1C(=O)C=CC1=O |  | active: 4.47 µM |
| COc1ccc(N2CSC3=C(C#N)C(c4cc(OC)ccc4OC)CC(=O)N3C2)c(OC)c1 (configuration not stated) |  | active: 7.94 µM |
| COc1ccc(NC(=O)c2coc(C)c2)cc1 | inactive: -0.828% |  |
| CCOC(=O)c1c(C)n(Cc2ccccc2)c2ccc(O)cc12 |  | inconclusive: 28.2 µM [inhibitor, single point] |
| CC(C)(C)c1ccc(C(=O)N2CCNC(=O)C2CC(=O)Nc2ccc(F)cc2)cc1 (configuration not stated) |  | inconclusive: 31.6 µM [inhibitor, single point] |
| Cc1ccc(NC(=O)c2cc(-c3ccc(C)o3)nc3ccccc23)cc1 |  | inconclusive: 28.2 µM [inhibitor, single point] |
| COc1ccc(C(=O)NC(=S)N2CCN(c3ccc([N+](=O)[O-])cc3)CC2)cc1 |  | inconclusive: 5.01 µM [inhibitor, partial curve, poor fit] |
| Cc1ccccc1N=CC1=C(O)c2ccccc2C1=O |  | inconclusive: 28.2 µM [inhibitor, partial curve] |
| COC(=O)c1ccc(NCC(=O)c2ccccc2)cc1 |  | inconclusive: 25.1 µM [inhibitor, partial curve] |
| Cc1ccc(S(=O)(=O)N2CCOCC2)cc1NC(=O)CN1CCN(c2ccc(O)cc2)CC1 |  | inconclusive: 31.6 µM [inhibitor, single point] |
| CCOC(=O)C(Sc1nnc2c3ccccc3n(CC)c2n1)C(=O)OCC |  | inconclusive: 6.31 µM [inhibitor, partial curve, poor fit] |
| Cc1ccc2c(c1)c1c(c(=O)n(-c3ccccc3C)c(=O)n1CC(=O)NCc1ccccc1)n2C | inactive: -3.14% |  |
| Cn1cc(SCC(=O)N2CCN(c3ccccc3)CC2)c2ccccc21 |  | inconclusive: 22.4 µM [inhibitor, single point] |
| [O-][n+]1ccccc1SSc1cccc[n+]1[O-] |  | inconclusive: 11.2 µM [inhibitor, partial curve] |
| COc1cc(-c2n[nH]c(=S)n2-c2cc(C(F)(F)F)ccc2Cl)cc(OC)c1OC |  | inconclusive: 28.2 µM [inhibitor, partial curve, poor fit] |
| Cc1ccc2[nH]c3ccccc3c(=O)c2c1 | inactive: -0.056% |  |
| COc1ccc(CN=C2NN=C(c3cccc(OC)c3)CS2)cc1 |  | inconclusive: 44.7 µM [inhibitor, single point] |
| CCC(Cc1ccccc1)NC(=O)/C=C/c1ccco1 (configuration not stated) |  | inconclusive: 44.7 µM [inhibitor, single point] |
| O=C(Nc1ccc(N2CCCC2)c(Cl)c1)c1ccc([N+](=O)[O-])o1 | inactive: -2.58% |  |
| CC(=O)C1=C(C)NC(SCc2ccc(C#N)cc2)=C(C#N)C1c1ccco1 (configuration not stated) |  | inconclusive: 4.47 µM [inhibitor, full curve] |
| COc1ccc(S(=O)NC2CCCCC2)c(OC)c1C (configuration not stated) |  | inconclusive: 12.6 µM [inhibitor, partial curve] |
